Measurements taken from PubChem BioAssay AID1963960 (Molecular Pharmacology Branch, DTP, NCI, 2024).
Some entries of the source have several records that differ or are many. This list holds those alone. There may be further records. Values given together are repeats in other runs, samples, wells, individuals or studies.

System: MDA-MB-468 spheroids with HUVEC/MSC, viability
Experiment: Anticancer human tumor MDA-MB-468 cell line growth inhibition [PI3K];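 note: spheroids exposed to agents for seven days before readout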;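 for viability, T/C: 100% = DMSO vehicle control viability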
Conditions: for viability, T/C: stronger effect = lower value; for IC50: compound alone
Source text: Combinatorial screen of targeted agents with the PI3K inhibitors inavolisib, alpelisib, duvelisib, and copanlisib in multi-cell type tumor spheroids
A high-throughput screen of multi-cell type tumor spheroids was designed to identify active combinations of targeted small molecules and PI3K pathway inhibitors. Complex spheroids include a stromal component modeled by human endothelial cells (HUVEC) and fibroblasts modeled by human mesenchymal stem cells (MSCs). The concentration ranges selected for each drug and investigational agent were based upon clinically achievable concentrations if the clinical Cmax of the agent was known.
Compounds. The drugs and investigational agents: inavolisib (NSC800729), alpelisib (NSC765974), duvelisib (NSC772469), copanlisib (NSC816437), ipatasertib (NSC767898), afuresertib (NSC778305), talazoparib (NSC767125), sapanisertib (NSC764658), selumetinib (NSC741078), tovorafenib (DAY101, NSC766906), vemurafenib (NSC761431), ravoxertinib (NSC781343), sotorasib (NSC818433), MRTX1133 (NSC 836407), abemaciclib (NSC 768073), palbociclib (NSC758247), venetoclax (NSC 766270), SY5609 (NSC837396), enzalutamide (NSC755605), and darolutamide (NSC825331), were obtained from the National Cancer Institute (NCI) Developmental Therapeutics Program Chemical Repository. The FDA-approved anticancer drug set is available from the NCI Developmental Therapeutics Program. […] The stock solutions were prepared in dimethyl sulfoxide (DMSO, Sigma-Aldrich, St. Louis, MO, cat. D2650) at 800-fold the tested concentration and stored at -70 degrees C prior to their use. All drugs and investigational agents were tested over a range starting from a high concentration at or near the clinical Cmax and decreasing in half-log increments. If the clinical Cmax for an agent had not been determined, the highest concentration tested was 10 microM.
Cell Culture. All cells were maintained in an incubator at 37 degrees C and 5% CO2 with 95% humidity. The PDC lines were cultured according to standard operating procedures established by the NCI PDMR (https://pdmr.cancer.gov/sops/default.htm). All PDCs were thawed and cultured in Matrigel-coated flasks prepared with a working solution of 1X Ham's F-12 nutrient mix, without supplementation (Invitrogen, Waltham, MA, cat. 11765054), 100 U/mL penicillin-streptomycin (Invitrogen, cat. 15140122), and 2.5% Matrigel (Corning Inc., Corning, NY, cat. 354248) for the first three passages. The 354836-022-R-J1-PDC, 475296-252-R-J1-PDC, and 997726-040-R-J2-PDC lines were cultured in 6A media, which includes advanced DMEM/F-12 (Thermo Fisher Scientific, cat. 12634028), 10 mM HEPES (Thermo Fisher Scientific, cat. 15630080), 1X GlutaMAX supplement (Thermo Fisher Scientific, cat. 35050061), 0.1 mg/mL primocin (InvivoGen, San Diego, CA, cat. ant-pm-2), 10% defined fetal bovine serum, heat inactivated (HyClone Laboratories Inc., Logan, UT, cat. SH30070.03HI), 50% L-WRN conditioned media (ATCC, cat. CRL-3276), 1.25 mM N-Acetyl-L-cysteine (Sigma-Aldrich, cat. A9165), 10 mM nicotinamide (Sigma-Aldrich, cat. N0636), 1X B-27 supplement (Thermo Fisher Scientific, cat. 17504044), 1X N-2 supplement (Thermo Fisher Scientific, cat. 17502048), and 10 microM Y-27632 dihydrochloride (Tocris Bioscience, Bristol, United Kingdom, cat. 1254). The 624824-186-R-J2-PDC line was cultured in 6C/Colon 1B media, which includes all 6A media components plus 50 ng/mL human EGF recombinant protein (Thermo Fisher Scientific, cat. PHG0311). […]

Structure (SMILES): CC(Cn1ccc(-c2ccc(C#N)c(Cl)c2)n1)NC(=O)c1cc(C(C)O)[nH]n1 (configuration not stated)
- viability, T/C (compound alone 10 µM): 59.6, 86.8, 80.5, 83.5%

Structure (SMILES): C[C@@H](NC(=O)c1ncnc(N)c1Cl)c1ncc(C(=O)Nc2cc(C(F)(F)F)c(Cl)cn2)s1
- viability, T/C (compound alone 0.316 µM): 97.2, 114, 119, 93.2%
- viability, T/C (compound alone 3.16 µM): 78.1, 106, 96.2, 78%
- viability, T/C (compound alone 10 µM): 81.5, 101, 113, 78.3%

Structure (SMILES): C=CC(=O)N1CCN(c2nc(=O)n(-c3c(C)ccnc3C(C)C)c3nc(-c4c(O)cccc4F)c(F)cc23)C(C)C1 (configuration not stated)
- viability, T/C (compound alone 0.316 µM): 84, 89.6, 102, 115%

Structure (SMILES): Cc1nc(NC(=O)N2CCCC2C(N)=O)sc1-c1ccnc(C(C)(C)C(F)(F)F)c1 (configuration not stated)
- IC50 (run of 05/08/2023): 7.6 µM, 7.44 µM, 7.85 µM, 7.07 µM, 6.75 µM, > 10 µM, 8.5 µM

Structure (SMILES): Cn1nccc1Nc1nccc(-c2ccn(C(CO)c3ccc(Cl)c(F)c3)c(=O)c2)n1 (configuration not stated)
- viability, T/C (compound alone 1 µM): 100, 102, 75.3, 80.9%
- viability, T/C (compound alone 3.16 µM): 92.7, 104, 79.8, 71.7%

Structure (SMILES): CCN1CCN(Cc2ccc(Nc3ncc(F)c(-c4cc(F)c5nc(C)n(C(C)C)c5c4)n3)nc2)CC1
- viability, T/C (compound alone 0.01 µM): 94.5, 115, 79.9, 95.6%
- viability, T/C (compound alone 0.1 µM): 89.8, 105, 79.6, 93.6%

Structure (SMILES): CC(C)NCC(C(=O)N1CCN(c2ncnc3c2C(C)CC3O)CC1)c1ccc(Cl)cc1 (configuration not stated)
- viability, T/C (compound alone 0.316 µM): 56.4, 74, 78.2, 83.1%

Structure (SMILES): CC(C)n1nc(-c2ccc3oc(N)nc3c2)c2c(N)ncnc21
- viability, T/C (compound alone 0.001 µM): 114, 99.6, 85.9, 99.5%

Structure (SMILES): CCCS(=O)(=O)Nc1ccc(F)c(C(=O)c2c[nH]c3ncc(-c4ccc(Cl)cc4)cc23)c1F
- viability, T/C (compound alone 0.0316 µM): 72.2, 97.3, 91.2, 85%
- viability, T/C (compound alone 0.1 µM): 114, 109, 88.2, 94.9%

Structure (SMILES): CC1(C)CCC(CN2CCN(c3ccc(C(=O)NS(=O)(=O)c4ccc(NCC5CCOCC5)c([N+](=O)[O-])c4)c(Oc4cnc5[nH]ccc5c4)c3)CC2)=C(c2ccc(Cl)cc2)C1
- IC50: 5.52 µM, 4.62 µM, 4.86 µM, > 10 µM
- viability, T/C (compound alone 10 µM): 7.89, 9.58, 15.9, 81.9%

Structure (SMILES): C#Cc1c(F)ccc2cc(O)cc(-c3ncc4c(N5CC6CCC(C5)N6)nc(OCC56CCCN5CC(F)C6)nc4c3F)c12 (configuration not stated)
- viability, T/C (compound alone 3.16 µM): 118, 89.3, 98, 86%
